From the supplement of paper PMC9927326

Assays:
Test in all cases: CLSI broth microdilution.
[1] = compound: Nc1[nH]c(=O)ncc1F [flucytosine]
[2] = compound: C[C@@H](c1ncncc1F)[C@](O)(Cn1cncn1)c1ccc(F)cc1F [voriconazole]
[3] = compound: CCC(C)n1ncn(-c2ccc(N3CCN(c4ccc(OCC5COC(Cn6cncn6)(c6ccc(Cl)cc6Cl)O5)cc4)CC3)cc2)c1=O [itraconazole]
[4] = compound: CCCCCOc1ccc(-c2ccc(-c3ccc(C(=O)N[C@H]4C[C@@H](O)[C@@H](O)NC(=O)[C@@H]5[C@@H](O)[C@@H](C)CN5C(=O)[C@H]([C@@H](C)O)NC(=O)[C@H]([C@H](O)[C@@H](O)c5ccc(O)cc5)NC(=O)[C@@H]5C[C@@H](O)CN5C(=O)[C@H]([C@@H](C)O)NC4=O)cc3)cc2)cc1 [anidulafungin]
[5] = compound: CC[C@@H]([C@H](C)O)n1ncn(-c2ccc(N3CCN(c4ccc(OC[C@@H]5CO[C@@](Cn6cncn6)(c6ccc(F)cc6F)C5)cc4)CC3)cc2)c1=O [posaconazole]
[6] = compound: C[C@@H]1[C@H](O)[C@@H](C)/C=C/C=C/C=C/C=C/C=C/C=C/C=C/[C@H](O[C@@H]2O[C@H](C)[C@@H](O)[C@H](N)[C@@H]2O)C[C@@H]2O[C@](O)(C[C@@H](O)C[C@@H](O)[C@H](O)CC[C@@H](O)C[C@@H](O)CC(=O)O[C@H]1C)C[C@H](O)[C@H]2C(=O)O [amphotericin B]
[7] = compound: OC(Cn1cncn1)(Cn1cncn1)c1ccc(F)cc1F [fluconazole]
[8] = compound: CCCCCOc1ccc(-c2cc(-c3ccc(C(=O)N[C@H]4C[C@@H](O)[C@@H](O)NC(=O)[C@@H]5[C@@H](O)[C@@H](C)CN5C(=O)[C@H]([C@H](O)CC(N)=O)NC(=O)[C@H]([C@H](O)[C@@H](O)c5ccc(O)c(OS(=O)(=O)O)c5)NC(=O)[C@@H]5C[C@@H](O)CN5C(=O)[C@H]([C@@H](C)O)NC4=O)cc3)no2)cc1 [micafungin]
[9] = compound: CC[C@H](C)C[C@H](C)CCCCCCCCC(=O)N[C@H]1C[C@@H](O)[C@@H](NCCN)NC(=O)[C@@H]2[C@@H](O)CCN2C(=O)[C@H]([C@H](O)CCN)NC(=O)[C@H]([C@H](O)[C@@H](O)c2ccc(O)cc2)NC(=O)[C@@H]2C[C@@H](O)CN2C(=O)[C@H]([C@@H](C)O)NC1=O [caspofungin]

Which MIC [1] does the source give for “Candida albicans isolate 276 (Erg11p: WT, Fur1p: WT, Tac1p: N896S)” here?
Its MIC is no more than 0.06 mg/L [S].

What about the MIC [2] of the same test system?
The MIC was no more than 0.008 mg/L [S].

And the MIC [3]?
Its MIC is 0.03 mg/L [S].

And the MIC [4]?
Its MIC is no more than 0.015 mg/L [S].

And the MIC [5]?
Its MIC is 0.015 mg/L [S].

And the MIC [6]?
Its MIC is 0.5 mg/L [S].

And the MIC [7]?
The MIC was 0.25 mg/L [S].

What about the MIC [8] of the same test system?
Its MIC is no more than 0.008 mg/L [S].

What about the MIC [9] of the same test system?
The MIC was 0.03 mg/L [S].

“Candida albicans isolate 142 (Erg11p: E266D, Fur1p: WT, Tac1p: N896S,I558V,A377V,F189S,N174D,M170I,K87N)” was tested. Which MIC [1] did it give?
Its MIC is no more than 0.06 mg/L [S].

What about the MIC [2] of the same test system?
The MIC was no more than 0.008 mg/L [S].

What about the MIC [3] of the same test system?
The MIC was 0.03 mg/L [S].

And the MIC [4]?
Its MIC is 0.12 mg/L [S].

And the MIC [5]?
The MIC was 0.015 mg/L [S].

And the MIC [6]?
Its MIC is 0.5 mg/L [S].

What about the MIC [7] of the same test system?
The MIC was 0.5 mg/L [S].

And the MIC [8]?
Its MIC is 0.015 mg/L [S].

And the MIC [9]?
Its MIC is 0.015 mg/L [S].

With “Candida albicans isolate 249 (Erg11p: WT, Fur1p: WT, Tac1p: N896S)” as the test system, how does the MIC [1] read?
Its MIC is no more than 0.06 mg/L [S].

And the MIC [2]?
Its MIC is no more than 0.008 mg/L [S].

What about the MIC [3] of the same test system?
Its MIC is 0.03 mg/L [S].

And the MIC [4]?
The MIC was 0.06 mg/L [S].

What about the MIC [5] of the same test system?
The MIC was 0.015 mg/L [S].

What about the MIC [6] of the same test system?
The MIC was 0.25 mg/L [S].

What about the MIC [7] of the same test system?
The MIC was 0.25 mg/L [S].

What about the MIC [8] of the same test system?
Its MIC is no more than 0.008 mg/L [S].

And the MIC [9]?
The MIC was 0.06 mg/L [S].

“Candida albicans isolate 125 (Erg11p: E266D, Fur1p: WT, Tac1p: I558V,A377V,F189S,N174D,M170I,K87N)” was tested. Which MIC [1] did it give?
The MIC was no more than 0.06 mg/L [S].

And the MIC [2]?
Its MIC is no more than 0.008 mg/L [S].

What about the MIC [3] of the same test system?
The MIC was 0.06 mg/L [S].

And the MIC [4]?
Its MIC is no more than 0.015 mg/L [S].

And the MIC [5]?
The MIC was 0.03 mg/L [S].

What about the MIC [6] of the same test system?
Its MIC is 0.5 mg/L [S].

And the MIC [7]?
Its MIC is 0.5 mg/L [S].

And the MIC [8]?
Its MIC is 0.03 mg/L [S].

And the MIC [9]?
Its MIC is 0.03 mg/L [S].

Which MIC [1] does the source give for “Candida albicans isolate 315 (Erg11p: WT, Fur1p: WT, Tac1p: N896S,I895T)” here?
Its MIC is no more than 0.06 mg/L [S].

What about the MIC [2] of the same test system?
The MIC was no more than 0.008 mg/L [S].

What about the MIC [3] of the same test system?
Its MIC is 0.03 mg/L [S].

What about the MIC [4] of the same test system?
Its MIC is 0.06 mg/L [S].

What about the MIC [5] of the same test system?
The MIC was 0.015 mg/L [S].

And the MIC [6]?
Its MIC is 0.25 mg/L [S].

What about the MIC [7] of the same test system?
The MIC was 0.5 mg/L [S].

And the MIC [8]?
Its MIC is 0.015 mg/L [S].

And the MIC [9]?
The MIC was 0.03 mg/L [S].

How did the MIC [1] turn out when “Candida albicans isolate 251 (Erg11p: E266D,G129A, Fur1p: WT, Tac1p: R869Q,L695F,I558V,A377V,F189S,M170V,L131I)” was run?
The MIC was no less than 64 mg/L [R].

What about the MIC [2] of the same test system?
Its MIC is no less than 8 mg/L [R].

What about the MIC [3] of the same test system?
Its MIC is no less than 16 mg/L [R].

What about the MIC [4] of the same test system?
The MIC was no less than 8 mg/L [R].

And the MIC [5]?
Its MIC is no less than 8 mg/L [R].

And the MIC [6]?
Its MIC is no more than 0.12 mg/L [S].

And the MIC [7]?
Its MIC is no less than 256 mg/L [R].

And the MIC [8]?
Its MIC is no less than 8 mg/L [R].

What about the MIC [9] of the same test system?
The MIC was no less than 8 mg/L [R].

For “Candida albicans isolate 242 (Erg11p: WT, Fur1p: WT, Tac1p: A377V,F189S,N174D,M170I,K87N)”, which MIC [1] is on record?
The MIC was no more than 0.06 mg/L [S].

What about the MIC [2] of the same test system?
Its MIC is 0.03 mg/L [S].

And the MIC [3]?
The MIC was 0.06 mg/L [S].

What about the MIC [4] of the same test system?
The MIC was no more than 0.015 mg/L [S].

And the MIC [5]?
The MIC was 0.03 mg/L [S].

And the MIC [6]?
Its MIC is 1 mg/L [S].

And the MIC [7]?
The MIC was 0.5 mg/L [S].

And the MIC [8]?
Its MIC is 0.015 mg/L [S].

What about the MIC [9] of the same test system?
Its MIC is 0.06 mg/L [S].

For “Candida albicans isolate 24 (Erg11p: WT, Fur1p: WT, Tac1p: I558V,A377V,F189S,N174D,M170I,K87N)”, which MIC [1] is on record?
The MIC was no more than 0.06 mg/L [S].

What about the MIC [2] of the same test system?
The MIC was no more than 0.008 mg/L [S].

And the MIC [3]?
The MIC was no more than 0.015 mg/L [S].

And the MIC [4]?
Its MIC is 0.06 mg/L [S].

What about the MIC [5] of the same test system?
Its MIC is 0.015 mg/L [S].

And the MIC [6]?
The MIC was 0.5 mg/L [S].

What about the MIC [7] of the same test system?
Its MIC is 0.25 mg/L [S].

And the MIC [8]?
Its MIC is no more than 0.008 mg/L [S].

And the MIC [9]?
The MIC was 0.03 mg/L [S].

What does the source list for “Candida albicans isolate 295 (Erg11p: WT, Fur1p: WT, Tac1p: A377V,F189S,N174D,M170I,K87N)”?
MIC [1]: ≤ 0.06 mg/L [S]; MIC [2]: ≤ 0.008 mg/L [S]; MIC [3]: 0.03 mg/L [S]; MIC [4]: 0.06 mg/L [S]; MIC [5]: 0.015 mg/L [S]; MIC [6]: 0.5 mg/L [S]; MIC [7]: 0.5 mg/L [S]; MIC [8]: ≤ 0.008 mg/L [S]; MIC [9]: 0.015 mg/L [S]

With “Candida albicans isolate 14 (Erg11p: F145L,A114V, Fur1p: R101C, Tac1p: H263Y)” as the test system, how does the MIC [1] read?
Its MIC is no more than 0.06 mg/L [S].

And the MIC [2]?
Its MIC is 0.12 mg/L [S].

And the MIC [3]?
The MIC was 0.25 mg/L [R].

And the MIC [4]?
The MIC was no more than 0.015 mg/L [S].

What about the MIC [5] of the same test system?
Its MIC is 0.25 mg/L [R].

What about the MIC [6] of the same test system?
Its MIC is 0.5 mg/L [S].

What about the MIC [7] of the same test system?
Its MIC is 16 mg/L [R].

And the MIC [8]?
The MIC was 0.015 mg/L [S].

What about the MIC [9] of the same test system?
The MIC was 0.03 mg/L [S].

What does the source list for “Candida albicans isolate 48 (Erg11p: G129A, Fur1p: WT, Tac1p: R869Q,L695F,I558V,A377V,F189S,M170V,L131I)”?
MIC [1]: ≤ 0.06 mg/L [S]; MIC [2]: ≤ 0.008 mg/L [S]; MIC [3]: ≤ 0.015 mg/L [S]; MIC [4]: ≤ 0.015 mg/L [S]; MIC [5]: 0.03 mg/L [S]; MIC [6]: 0.5 mg/L [S]; MIC [7]: 0.5 mg/L [S]; MIC [8]: 0.015 mg/L [S]; MIC [9]: 0.06 mg/L [S]

How did the MIC [1] turn out when “Candida albicans isolate 263 (Erg11p: K342R,E266D, Fur1p: WT, Tac1p: I558V,A377V,F189S,N174D,M170I,K87N)” was run?
Its MIC is no more than 0.06 mg/L [S].

And the MIC [2]?
Its MIC is no more than 0.008 mg/L [S].

And the MIC [3]?
Its MIC is 0.06 mg/L [S].

And the MIC [4]?
Its MIC is 0.06 mg/L [S].

And the MIC [5]?
Its MIC is 0.03 mg/L [S].

What about the MIC [6] of the same test system?
The MIC was 0.25 mg/L [S].

What about the MIC [7] of the same test system?
The MIC was 0.5 mg/L [S].

And the MIC [8]?
The MIC was 0.015 mg/L [S].

And the MIC [9]?
Its MIC is 0.03 mg/L [S].

MIC of clinical C. albicans isolates, CLSI broth microdilution (ranges and time not stated); higher = less susceptible. Call: susceptible or wild type [S] / resistant or non-wild type [R] by CLSI breakpoints or epidemiological cut-offs; intermediate and dose-dependent carry no call here (the paper groups them with resistant). '<=' and '>=' mark each drug's lowest and highest value, inferred; the source prints them plain. Isolates are numbered anew.
